{
  "source": "PubChem BioAssay AID686978",
  "about": "(National Center for Advancing Translational Sciences (NCATS), 2013)",
  "note": "Values joined by “and” are separate entries in the source; they are usually repeats but may differ in a detail not shown here. Identical values can stand only once. Screen size: about 420,000 compounds; about 64,000 (15%) were called active. Inconclusive results, whose numbers are uncertain, are shown with a selection of clear calls. Calls come from the whole dose curve; as a rule, active = well fitted inhibition curve with a large enough effect; inconclusive = small, poorly fitted or top-dose-only effect; inactive = flat fitted curve, though single readings scatter. No potency is given beside an inconclusive call; the fits are too rough. The source holds several records for some structures; these can differ, active in one and inactive in another. % is set by controls: 0 for no effect and ±100 for the full control effect; potency is the fitted concentration of half-maximal effect; tags give direction and shape of the fitted curve.",
  "data": [
    {"assay": "qHTS for Inhibitors of human tyrosyl-DNA phosphodiesterase 1 (TDP1): qHTS in cells in absence of CPT; note: nearly all actives have a fitted effect of over 55% in size", "conditions": "DT40 Tdp1-/- hTDP1 cells, no CPT, ATP luminescence, 48 h; activity change, negative = growth inhibition: at 46.2 µM (top of the series)", "summary_of_the_method": "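Growth kinetics read by CellTiter-Glo luminescence after ≥48 hr at 37 °C. Cells: DT40 Tdp1-/- stably carrying human TDP1, 400 per well, compound exposure in the absence of CPT (DMSO vehicle).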", "values": [
      {"smiles": "CCCn1c(=O)c(C(=O)NC(C)c2ccccc2)c(O)c2ccccc21", "note": "(stereo unspecified)", "Potency": "active: 25.9 µM"},
      {"smiles": "O=C(Nc1ccc(F)cc1)C(CCc1ccccc1)N1CCN(CC(=O)N2CCCC2)CC1", "note": "(stereo unspecified)", "Potency": "inactive"},
      {"smiles": "CN(C)c1ccc(C=Nc2ccc(/C=C/c3ccnc4ccccc34)cc2)cc1", "Potency": "active: 17.8 µM"},
      {"smiles": "NC(COCc1ccccc1)c1csc(NC(=O)Nc2cccc(Cl)c2)n1", "note": "(stereo unspecified)", "Potency": "inconclusive [inhibitor, single point]"},
      {"smiles": "CCn1c(Oc2ccccc2C)nc2c1c(=O)n(C)c(=O)n2C", "Potency": "inconclusive [inhibitor, partial curve]"},
      {"smiles": "CN(CCO)C(=O)C1CCN(c2ncc(C(F)(F)F)cc2Cl)CC1", "Potency": "inconclusive [inhibitor, single point]"},
      {"smiles": "Cc1nc(NCc2cnn(C)c2)sc1-c1ccn(-c2cccc(F)c2)n1", "Potency": "inactive"},
      {"smiles": "CN(C)CCNC(=O)c1ccc2nc(Cc3ccccc3)oc2c1", "Potency": "inconclusive [inhibitor, single point]"},
      {"smiles": "CCN(CC)C(=O)Cn1cc(SCC(=O)Nc2cc(OC)ccc2OC)c2ccccc21", "Potency": "inconclusive [inhibitor, single point]"},
      {"smiles": "C[C@H](OC(=O)N1CCN(C(c2ccccc2)c2ccccc2)CC1)[C@@H]1O[C@@]2(C)CCC[C@H]1O2", "Potency": "inconclusive [inhibitor, single point]"},
      {"smiles": "CCS(=O)(=O)N1CCC2(CC1)OCCN2S(=O)(=O)c1ccc(C)cc1", "Potency": "inactive"},
      {"smiles": "CCOC(=O)c1sc(/N=C/c2ccc(O)cc2O)cc1C", "Potency": "inactive"},
      {"smiles": "Nc1ccc2c(c1)CC(=O)c1ccccc1S2", "Potency": "inactive"},
      {"smiles": "N/C(=N\\NS(=O)(=O)c1ccccc1C(F)(F)F)c1ccccn1", "Potency": "inactive"},
      {"smiles": "O=C(NCc1cccnc1)c1cc(Cl)ccc1[N+](=O)[O-]", "Potency": "inactive"},
      {"smiles": "CCCNC(=O)CN(C)C(=O)c1n[nH]c2ccccc12", "Potency": "inconclusive [inhibitor, single point]"},
      {"smiles": "COC(=O)C1N[C@@H]([C@@H](NC(=O)COc2ccccc2)C(=O)NCc2ccccc2)SC1(C)C", "note": "(stereo partly specified)", "Potency": "inactive and active: 20 µM"},
      {"smiles": "COc1ccc(N(CC(=O)Nc2ccc(C(N)=O)cc2)S(=O)(=O)c2ccc(C)c([N+](=O)[O-])c2)cc1", "Potency": "inactive"},
      {"smiles": "COC(=O)c1ccc(NC(=O)COc2ccccc2C(=O)Nc2ccccc2)cc1", "Potency": "inconclusive [inhibitor, single point]"},
      {"smiles": "CC1(C)Cc2cccc(OCC(=O)Nc3ccccc3N3CCOCC3)c2O1", "Potency": "inconclusive [inhibitor, single point]"},
      {"smiles": "Cc1onc(-c2ccccc2)c1C(=O)OCC(=O)Nc1cc(S(=O)(=O)N2CCOCC2)ccc1Cl", "Potency": "active: 23.1 µM"},
      {"smiles": "O=C(Nc1cccc(F)c1)c1ccc(S(=O)(=O)N2CCCC2)cc1", "Potency": "inconclusive [inhibitor, single point]"},
      {"smiles": "Nc1[nH]c2cc([N+](=O)[O-])ccc2c1-c1ccccn1", "Potency": "inconclusive [inhibitor, single point]"},
      {"smiles": "COc1ccccc1C(=O)Nc1ccc(OCC(=O)N2CC(C)CC(C)C2)cc1", "note": "(stereo unspecified)", "Potency": "inconclusive [inhibitor, single point]"},
      {"smiles": "Cn1c(=O)c2c(nc(NCCO)n2C)n(C)c1=O", "Potency": "inactive"},
      {"smiles": "CC(=O)Nc1sc(C)c(C)c1C(=O)OCC(=O)N(CC(C)C)C1CCS(=O)(=O)C1", "note": "(stereo unspecified)", "activity change, negative = growth inhibition": "inconclusive: -32.3% [inhibitor]"},
      {"smiles": "O=C1C2C3c4ccccc4C(c4ccccc43)C2C(=O)N1c1cccc2cccnc12", "note": "(stereo unspecified)", "Potency": "inconclusive [inhibitor, partial curve, poor fit]"},
      {"smiles": "COC(=O)c1c(NC(=O)CC2NCCNC2=O)sc2c1CCCC2", "note": "(stereo unspecified)", "Potency": "inconclusive [inhibitor, single point]"},
      {"smiles": "COC(=O)c1cc(S(=O)(=O)N2CCN(Cc3ccccc3)CC2)c[nH]1", "Potency": "inactive"},
      {"smiles": "COc1ccc2c(CC(=O)Nc3nc(C)cs3)coc2c1", "Potency": "inconclusive [inhibitor, single point]"},
      {"smiles": "Cc1ccccc1C(=O)Nc1sc2c(c1C(=O)N1CCCCC1)CCC(C(C)(C)C)C2", "note": "(stereo unspecified)", "Potency": "inconclusive [inhibitor, partial curve]"},
      {"smiles": "S=C1NC[C@H](Cc2ccccc2)N1CC1CCN(CCCCc2ccccc2)CC1", "Potency": "inconclusive [inhibitor, single point]"},
      {"smiles": "Cc1ccc2oc(=O)n(CCOc3ccccc3)c2c1", "Potency": "inactive"},
      {"smiles": "C=CCNC(=O)C1CC1(c1cccc(C)c1)c1cccc(C)c1", "note": "(stereo unspecified)", "Potency": "inactive"},
      {"smiles": "CCCCCNC(=O)C(c1cccc2ccccc12)n1c(=O)c(-c2ccco2)nc2ccccc21", "note": "(stereo unspecified)", "Potency": "inconclusive [inhibitor, single point]"},
      {"smiles": "CN(C)C(=O)c1cccc(-c2cnc3c(NC=O)cc(-c4ccc(F)cc4)cn23)c1", "Potency": "active: 6.51 µM"},
      {"smiles": "CCOC(=O)c1c(NC(=O)c2cccs2)sc(C(=O)N(C)C)c1C", "Potency": "inconclusive [inhibitor, single point]"},
      {"smiles": "CCC(CC)C(=O)Nc1ccc2nc(SCC(=O)N3CCOCC3)sc2c1", "Potency": "inconclusive [inhibitor, single point]"},
      {"smiles": "COc1ccc(/C=N/NC(=O)c2ccc(CN3C(=O)c4cccc5cccc3c45)cc2)cc1O", "Potency": "inconclusive [inhibitor, single point]"},
      {"smiles": "Cc1ccc(NC(=O)CN(Cc2ccccc2)S(C)(=O)=O)cc1C", "activity change, negative = growth inhibition": "inconclusive: -36.7% [inhibitor]"},
      {"smiles": "Cc1ccc(-n2nnc3c(=O)n(CC(=O)NCc4ccccc4)cnc32)cc1", "Potency": "inconclusive [inhibitor, single point]"},
      {"smiles": "CCC(C)n1c(SCc2ccc(F)cc2Cl)nc2ccsc2c1=O", "note": "(stereo unspecified)", "Potency": "active: 20.6 µM"},
      {"smiles": "COc1ccc(NC(=O)N2CCCC3(CCN(C(=O)c4cnccn4)CC3)C2)cc1", "Potency": "inactive"},
      {"smiles": "CCN1CCN(c2ncnc3scc(-c4ccc(C)c(C)c4)c23)CC1", "Potency": "active: 18.4 µM"},
      {"smiles": "Cc1ccc(CSc2nc3ccc(NC(=O)CC(C)C)cc3s2)cc1", "Potency": "inconclusive [inhibitor, single point]"},
      {"smiles": "Cn1ncc(Br)c1NC(=O)Nc1ccc(Cl)cc1", "Potency": "inconclusive [inhibitor, partial curve]"}
    ]}
  ]
}
